Results published in publication PMC12136788.
The other results are listed elsewhere or left out.

T1: UNK ZnF1-6 (called full-length) (human, UniProt Q9C0B0 30-357)
T1 sequence: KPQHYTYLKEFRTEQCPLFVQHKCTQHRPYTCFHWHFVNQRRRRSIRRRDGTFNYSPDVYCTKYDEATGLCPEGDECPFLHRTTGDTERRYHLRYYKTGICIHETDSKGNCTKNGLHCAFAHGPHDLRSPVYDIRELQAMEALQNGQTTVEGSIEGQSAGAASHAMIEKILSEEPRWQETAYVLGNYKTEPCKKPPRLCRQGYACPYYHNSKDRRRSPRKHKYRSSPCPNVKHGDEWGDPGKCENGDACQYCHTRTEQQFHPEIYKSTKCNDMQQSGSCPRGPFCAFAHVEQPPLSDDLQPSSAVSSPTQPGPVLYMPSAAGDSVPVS

B1: chr17:39604750:39604851:-|3pUTR|ENSG00000171532|msi1|total|mutant (ssRNA)
RNA: GGGAGUUCUACAGUCCGACGAUCAUUUUGGCGGGAGGGGAAGUGGAUUGAGAGGAAAGAGAGAGGCCAAGACAAUUUGUAACCCGAAUCCGUUUUUCCCUUUUCCUUUUUUUAAACAAACAAACAUACAAAAAAAAAAAAAAACAACAGAGGAUUGAGCAUCA
B2: chr1:17067390:17067767:-|3pUTR|ENSG00000117115|msi1|FALSE|unique (ssRNA)
RNA: GGGAGUUCUACAGUCCGACGAUCCCCAACAUGCAAAGCCCACAUUUAAAGGCCAGCCUCUGCCCCUUCAGUGAUGCGCUCUUUAGAAAUGCCAGUCCACUAUAUUCAGAAAUCCGCAGGGCACAAAACUUCCAGCAAGUCACUCAACAGAGGAUUGAGCAUCA
B3: chr7:39987650:39987751:+|CDS|ENSG00000065883|unk|total|mutant (ssRNA)
RNA: GGGAGUUCUACAGUCCGACGAUCUCCCGGCAUUCAAGAUCUCGCCGCAGGCACAGAUUGUCCCGAUCCAGAAGUCGUCAUUCCCGUAUUUCUCCCCGCACACUAACUCUGAAGAGCCGCCUGGCAGCUGAAUUGAACAAGAAUCAACAGAGGAUUGAGCAUCA
B4: chr12:123761472:123761573:+|3pUTR|ENSG00000185344|unk|total|mutant (ssRNA)
RNA: GGGAGUUCUACAGUCCGACGAUCAAUAAGGCAGUUUGAACGAACAGUCUUCCCACAGUCAGGCCAUUUUUGCUGAUUUGGUUCCGAAUUUUCAGAAAUACUCCGUACACUCCACCUGUUCUUUGAUGGGAAUAUCUAAGAAGGCAACAGAGGAUUGAGCAUCA
B5: ENSG00000107863:be:win_201|CDS|ENSG00000107863|bound_else_gene|NA|bound_elsewhere_windowed (ssRNA)
RNA: GGGAGUUCUACAGUCCGACGAUCUAUUGUUUAUCCCCCAGAGUCUGCAAUUCAAUUUUCAUAUAAGGAUGAAGAAAAUGGAAACAGAGGAGGAAAACAAAGAAACCGCUUGGAACCAAUGGAUACCAUAUUUGUUAAGCAAGUCAACAGAGGAUUGAGCAUCA
B6: chr4:112268257:112268372:+|CDS|ENSG00000138660|unk|total|mutant (ssRNA)
RNA: GGGAGUUCUACAGUCCGACGAUCAGUAAUCCUACAUCAGCCUCUGAUGAUUCCAAUGGGCUGGAGUGGGAAAAUGAUUUUGUCCGUGCCGAAAUGGAUGAUAAUGGAAAUUCCGAGUAUUCUGGAUUUGUAAAUCCUGUAUUACAACAGAGGAUUGAGCAUCA
B7: chr1:202892395:202892497:-|3pUTR|ENSG00000117153|unk|total|mutant (ssRNA)
RNA: GGGAGUUCUACAGUCCGACGAUCGCGAGAAGUGACCAUUGUUGGAGCACCAUCCAGAGCCCGUGACCAGUCCAGUGGACAGUCCGUGGGAGAAUCAAAAAUCCUUUCCAGAAUGUCUGUUUCUCACUAUGUGCACCGGGUGAUCAACAGAGGAUUGAGCAUCA
B8: chr11:30010719:30012678:-|CDS|ENSG00000182255|control|control|control (ssRNA)
RNA: GGGAGUUCUACAGUCCGACGAUCUUUGCUCAAGAAAUUUCGGAGCUCUACUUCUUCUUCCCUGGGGGACAAGUCAGAGUAUCUAGAGAUGGAAGAAGGAGUUAAGGAAUCUCUGUGUGCAAAGGAGGAGAAGUGUCAGGGAAACAACAGAGGAUUGAGCAUCA
B9: chr1:109313209:109313310:-|3pUTR|ENSG00000134243|msi1|total|mutant (ssRNA)
RNA: GGGAGUUCUACAGUCCGACGAUCCAGGGCAAUAUUUUUAACUUGGGGCAGGAAGAAGGGAGCAGCAGAGAAUUGACCCGAUACCGCACCUAUUAAAAGAGAACUCUUGCUUCUUCUGAGAUUUUUCAAGCUGUGCUUUGUGUGCAACAGAGGAUUGAGCAUCA
B10: chr19:19663270:19663666:-|CDS|ENSG00000105726|control|control|control (ssRNA)
RNA: GGGAGUUCUACAGUCCGACGAUCCGGGCAGCCCAAGCCCGGGCCGCAGCCGCGCGCGCUCCUUGCCGCCGGGCCGGCGCUCAUAGCGAACGGUGACGAGCUGGUGGCUGCCGUGUGGCCGUACCGGCGGUUGGCGCUGUUGCGCAACAGAGGAUUGAGCAUCA
B11: chr20:7981316:7981417:-|3pUTR|ENSG00000125827|unk|FALSE|bound_elsewhere (ssRNA)
RNA: GGGAGUUCUACAGUCCGACGAUCUAAGUUUUCUAAGCAAUAUUUUUCAAGCCAGAAGUCCUCUAAGUCUUGCCAGUACAAGGUAGUCUUGUGAAGAAAAGUUGAAUACUGUUUUGUUUUCAUCUCAAGGGGUUCCCUGGGUCUCAACAGAGGAUUGAGCAUCA
B12: chr7:95297675:95299102:-|three_prime_utr|ENSG00000005421|control|control|control (ssRNA)
RNA: GGGAGUUCUACAGUCCGACGAUCACAGUGUUUCACAAAGCUCUUUACUGUGAGCUCUAACAGACCGAUUUGCACCCAUGCCAUAGAAACUGAGGCCAUUAUUUCAACCGCUUGCCAUAUUCCGAGGACCCAGUGUUCUUAGCUCAACAGAGGAUUGAGCAUCA
B13: chr1:23854467:23854568:-|CDS|ENSG00000179163|unk|total|mutant (ssRNA)
RNA: GGGAGUUCUACAGUCCGACGAUCAAGUCAAGUGGUUUUACUCCUCAUGACCAAAUAUUCUUUCCCUCCUCCGGAUGAGGUGGCCGUAAAUGACCGAUGGGGUCAGAACUGUUCCUGUCACCAUGGAGGAUACUAUAACUGUGACAACAGAGGAUUGAGCAUCA
B14: chr10:128103381:128103482:-|CDS|ENSG00000148773|msi1|FALSE|unique (ssRNA)
RNA: GGGAGUUCUACAGUCCGACGAUCAACUGGCAGCAGGAGACGGCCAAGAGCACCCAGGGAAAGUGCCCAAGCCAUAGAAGACCUAGCUGGCUUCAAAGACCCAGCAGCAGGUCACACUGAAGAAUCAAUGACUGAUGACAAAACCAACAGAGGAUUGAGCAUCA
B15: chr1:235182574:235182675:-|CDS|ENSG00000054267|unk|total|mutant (ssRNA)
RNA: GGGAGUUCUACAGUCCGACGAUCUUUGACCAACAACAGAAAUGAUCUUAUUUCAAAGGAGGAACAGAACAGUUCAUCUUUGCCCGAAGAAAACAAAGUUCAUGCAGAUUUGGUAAUAUCCAAACCAGUGUCAAAAUCUCCAGACAACAGAGGAUUGAGCAUCA
B16: ENSG00000136451:be:win_1701|3pUTR|ENSG00000136451|bound_else_gene|NA|bound_elsewhere_windowed (ssRNA)
RNA: GGGAGUUCUACAGUCCGACGAUCUUUCUCCAAUUUGGCUGGGAUUAUUCAAAGUAGGGUGUGUAUGUAACUUAUCACUGGACCACUUUAGUUUAAUCAGAAAUUCCUUUUAGCUGACAACAUUGCUUAAACAGGAUAGUAGUUCAACAGAGGAUUGAGCAUCA
B17: chr14:106235063:106235368:-|CDS|ENSG00000211947|control|control|control (ssRNA)
RNA: GGGAGUUCUACAGUCCGACGAUCUGGGUCCGCCAGGCUCCAGGGAAGGGGCUGGAGUGGGUCUCAUCCAUUAGUAGUAGUAGUAGUUACAUAUACUACGCAGACUCAGUGAAGGGCCGAUUCACCAUCUCCAGAGACAACGCCCAACAGAGGAUUGAGCAUCA
B18: chr12:32755127:32755228:-|CDS|ENSG00000139131|unk|FALSE|unique (ssRNA)
RNA: GGGAGUUCUACAGUCCGACGAUCCUUCUAUUACCUCUUCCAGCGUUAUGGAUGCAGGGUCCAGCUGGGCGGAUCUGAUCAACUAGGCAACAUCAUGUCCGGAUAUGAGUUCAUCAACAAGUAAGUGCCUUUAAACCUUGGGGACAACAGAGGAUUGAGCAUCA
B19: chr6:125978377:125978478:+|3pUTR|ENSG00000111911|unk|FALSE|unique (ssRNA)
RNA: GGGAGUUCUACAGUCCGACGAUCAAUUUUGCCUCUAAUAACAUAAAGGGGGAAGAAACAUAAAGUGGUUCUCUUAAUAAAACUAGCAGAAAAUGUUGCUUUAUGGCAUGUUUUUGUAUCAAAGAGAAAUCAGAGGUUAAACUUCAACAGAGGAUUGAGCAUCA
B20: chr18:62902975:62903076:+|CDS|ENSG00000081913|unk|total|mutant (ssRNA)
RNA: GGGAGUUCUACAGUCCGACGAUCAGUGGACUUUCUACAGCAUGUUACUCAGCUUGACCUACGAGACAAUAAGCUUGGUGAUCCCGAUGCUAUGAUUUUCAACAACAUUGAAGUUUUACACUGUGAAAGGAAUCAACUGGUCACCAACAGAGGAUUGAGCAUCA
B21: chr17:19383441:19384461:-|three_prime_utr|ENSG00000166482|control|control|control (ssRNA)
RNA: GGGAGUUCUACAGUCCGACGAUCUACACCUGAAGUUACACUGCCAGCAGUUCCCCAGGCCUCUUCCGAGAGGCACAUGGUUCUAGCCUGGACCUGGCUGGGCUCCAUGAGAAUGAGUUGCCUCCAACCUGUCCCAACAGCUGACAACAGAGGAUUGAGCAUCA
B22: chr8:9779869:9779970:+|3pUTR|ENSG00000173273|msi1|FALSE|unique (ssRNA)
RNA: GGGAGUUCUACAGUCCGACGAUCGGAAUUUCUAGCUUUUCAAGCAGCAUAAGUAGAAUCAACAUUAGGAUGUUUUCAUGAAAUAGCAUCCUUAUACUUCUUUGAGCUUGAUGUUAGUGGCUAGACUGAUUUCCCUUUGCUCUCCAACAGAGGAUUGAGCAUCA

target: T1, UNK ZnF1-6 (called full-length); experiment: nsRBNS (natural sequence RNA bind-n-seq); RBNS binding buffer (assumed for nsRBNS): 25 mM Tris pH 7.5, 150 mM KCl, 3 mM MgCl2, 0.01% Triton X-100, 500 ug/ml BSA, 20 U/ml SUPERase-In, 4 C; UNK is unkempt and MSI1 is Musashi-1; names of the RNAs are library labels; protein concentration not given here; high values mean tight binding

Binder	binding signal
B1	0.939 enrichment R
B2	0.964 enrichment R
B3	0.714 enrichment R
B4	0.271 enrichment R
B5	0.254 enrichment R
B6	0.339 enrichment R
B7	0.412 enrichment R
B8	0.697 enrichment R
B9	0.928 enrichment R
B10	0.464 enrichment R
B11	0.677 enrichment R
B12	0.683 enrichment R
B13	0.488 enrichment R
B14	0.741 enrichment R
B15	0.182 enrichment R
B16	1.31 enrichment R
B17	1.06 enrichment R
B18	0.612 enrichment R
B19	0.386 enrichment R
B20	0.322 enrichment R
B21	0.652 enrichment R
B22	0.353 enrichment R
